PubChem BioAssay AID1030 (National Center for Advancing Translational Sciences (NCATS), 2008)
Out of some 220,000 compounds screened, about 16,000 (7.3%) were called active. Inconclusive results, whose numbers are uncertain, are shown with a selection of clear calls. The call rests on the fitted dose curve; in most records, active means well fitted inhibition curve with a large enough effect (not every such curve was filed as active); inconclusive means small, poorly fitted or top-dose-only effect, or another doubt; inactive means no such curve, though single readings can be large or run the other way. Potencies of inconclusive entries are doubtful fits and often do not repeat.

Target: Aldehyde dehydrogenase 1A1 (Homo sapiens) (UniProt P00352)
UniProt P00352, sequence (P00352 whole entry, looked up): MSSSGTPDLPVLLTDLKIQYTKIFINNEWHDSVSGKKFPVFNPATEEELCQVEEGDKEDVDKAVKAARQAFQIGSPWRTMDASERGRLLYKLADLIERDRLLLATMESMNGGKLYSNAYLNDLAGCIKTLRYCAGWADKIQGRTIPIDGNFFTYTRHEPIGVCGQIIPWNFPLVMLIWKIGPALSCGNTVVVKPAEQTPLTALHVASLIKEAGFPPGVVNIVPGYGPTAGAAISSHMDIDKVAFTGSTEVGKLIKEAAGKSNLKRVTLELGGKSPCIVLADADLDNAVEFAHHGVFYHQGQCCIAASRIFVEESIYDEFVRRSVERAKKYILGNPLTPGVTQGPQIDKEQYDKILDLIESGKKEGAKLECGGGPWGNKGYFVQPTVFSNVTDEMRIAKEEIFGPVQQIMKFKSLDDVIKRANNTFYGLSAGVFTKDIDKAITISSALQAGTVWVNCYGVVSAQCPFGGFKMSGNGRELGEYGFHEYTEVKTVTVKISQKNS
Experiment: qHTS Assay for Inhibitors of Aldehyde Dehydrogenase 1 (ALDH1A1);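 on activity, negative = inhibition: plate controls were no enzyme wells and a reference inhibitor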
Conditions: Purified ALDH1A1, NADH fluorescence, propionaldehyde substrate; series mostly up to 75.3 µM; activity, negative = inhibition: at the top concentration
Potency means the concentration at half of the fitted maximal effect; tags describe the fitted curve by direction and shape.

Potency, inconclusive:
O=C(CNS(=O)(=O)c1ccc2ccccc2c1)OCc1csc(-c2ccccc2)n1 39.8 µM [inhibitor, single point]
O=C(COc1cccc(Cl)c1)N/N=C\c1cc2ccccc2nc1Cl 31.6 µM [inhibitor, single point]
CCOc1ccccc1NC(=O)Nc1ccc(Cl)cc1 0.02 µM [inhibitor, full curve, poor fit]
Cc1cc(NC(=O)c2cc(CC(C)C)on2)no1 20 µM [inhibitor, partial curve]
CCCC(C(=O)NCc1ccc(OC)cc1)N(Cc1ccco1)C(=O)c1snc(C(N)=O)c1N (centres undefined) 25.1 µM [inhibitor, single point]
CCOC(=O)CNS(=O)(=O)c1cc(-c2nn(C)c(=O)c3ccccc23)ccc1C 39.8 µM [inhibitor, single point]
C=CCn1c(SCC(=O)N(C)C)nc2cc(C(=O)O)ccc2c1=O 39.8 µM [inhibitor, single point]
CN1/C(=C\C=Nc2ccc3ccccc3c2)C(C)(C)c2ccccc21 15.8 µM [inhibitor, partial curve]
CN1CCN(C(=O)c2cnn3c(C(F)(F)F)cc(-c4cccs4)nc23)CC1 37.7 µM [inhibitor, single point]
N#Cc1ccsc1NC(=O)CSc1ncnc2ccccc12 31.6 µM [inhibitor, single point]
CCNS(=O)(=O)c1ccc(CCC(=O)NCc2ccccc2)cc1 39.8 µM [inhibitor, single point]
O=C(c1ccc2c(c1)OCCO2)C1CCN(C(=O)c2ccc(F)c(F)c2)CC1 20 µM [inhibitor, partial curve]
O=C(CN1CCN(c2ccc(F)cc2)CC1)NCc1cccs1 28.2 µM [inhibitor, single point]

Potency, active:
O=C(NNC(=O)C1CC2CCC1C2)c1sc2ccccc2c1Cl (centres undefined) 25.1 µM
CCc1[nH]nc2c1C1(C(=O)N(Cc3ccccc3)c3ccccc31)C(C#N)=C(N)O2 (centres undefined) 7.94 µM
Fc1ccc(-c2n[nH]c(=S)c3ccccc23)cc1 3.98 µM
O=C(CSc1nnnn1C1CCCC1)N1CCN(C(=O)c2ccco2)CC1 14.1 µM

activity, negative = inhibition, inactive:
O=S(=O)(Nc1ccc(Cc2ccncc2)cc1)c1ccc(Cl)cc1 4.74%
CCOC(=O)N1CCN(C(=O)COc2cccc3c2CCN(Cc2ccc(F)cc2)C3=O)CC1 4.84%
